{"source": "PubChem BioAssay AID686978", "about": "(National Center for Advancing Translational Sciences (NCATS), 2013)", "note": "About 64,000 (15%) of roughly 420,000 compounds were called active. This list was built around the results that the source calls inconclusive (neither active nor inactive); the mix of calls is not that of the screen. Calls come from the whole dose curve; as a rule, active = well fitted inhibition curve with a large enough effect; inconclusive = small, poorly fitted or top-dose-only effect; inactive = flat fitted curve, though single readings scatter. No potency is given beside an inconclusive call; the fits are too rough. % is set by controls: 0 for no effect and ±100 for the full control effect; potency is the fitted concentration of half-maximal effect; tags give direction and shape of the fitted curve."}
{"experiment": "qHTS for Inhibitors of human tyrosyl-DNA phosphodiesterase 1 (TDP1): qHTS in cells in absence of CPT; note: nearly all actives have a fitted effect of over 55% in size", "conditions": "DT40 Tdp1-/- hTDP1 cells, no CPT, ATP luminescence, 48 h; activity change, negative = growth inhibition: at 46.2 µM (top of the series)", "in_short": "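Luminescent ATP content (CellTiter-Glo) served as the growth readout. Knockout chicken DT40 cells expressing human TDP1 were exposed to compounds without camptothecin for a minimum 48 hr at 37 °C.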"}
{"smiles": "COC(=O)C1=CN(c2ccc(C(C)(C)C)cc2)C(N)=C(C#N)C1c1ccccc1F", "note": "(stereo unspecified)", "Potency": "active: 20.6 µM"}
{"smiles": "CCOC(=O)N1CCN(C(=O)C(CC)n2nc(C)c3sc4ccccc4c3c2=O)CC1", "note": "(stereo unspecified)", "Potency": "inconclusive [inhibitor, partial curve, poor fit]"}
{"smiles": "CCOc1ccc(CCNC(=O)Cn2c(C)c3cnn(-c4ccccc4)c(=O)c3c2C)cc1", "Potency": "inactive"}
{"smiles": "O=C(NCc1ccco1)c1ccc2c(c1)N(Cc1cccc(Cl)c1)C(=O)c1ccccc1S2=O", "note": "(stereo unspecified)", "Potency": "inconclusive [inhibitor, single point]"}
{"smiles": "CCCCCCSc1ccc(-c2nc3ccccn3c2NCCCC)cc1", "Potency": "active: 14.6 µM"}
{"smiles": "CCOc1ncccc1C(=O)Nc1cccc(C(=O)Nc2cccc(S(=O)(=O)CCO)c2)c1", "Potency": "active: 7.31 µM"}
{"smiles": "COc1ccc(CCN2CN(S(=O)(=O)c3ccccc3)c3nc4ccccc4nc32)cc1", "Potency": "active: 18.4 µM"}
{"smiles": "Cc1cc(OCc2cc3c(cc2Cl)OCO3)c2c(C)cc(=O)oc2c1", "Potency": "inconclusive [inhibitor, single point]"}
{"smiles": "O=C(Cn1ncc2c3ccccc3n(Cc3cccc(Cl)c3)c2c1=O)N1CCCCCC1", "Potency": "active: 20.6 µM"}
{"smiles": "CCOc1ccc(/C=N/n2c(C3CCCCC3)n[nH]c2=S)cc1", "Potency": "inconclusive [inhibitor, single point]"}
{"smiles": "OCCN1CCN(Cc2cc(Cl)c3cccnc3c2O)CC1", "Potency": "inconclusive [inhibitor, single point]"}
{"smiles": "COC(=O)CN1C(=O)[C@H]2[C@@H](/C=C/c3ccccc3)N3C(=O)CN(CC4CC4)C(=O)[C@@]3(Cc3ccccc3)[C@H]2C1=O", "Potency": "inactive"}
{"smiles": "CCOC(=O)/C(C#N)=C/c1c(N2CCN(c3ccccc3)CC2)nc2c(C)cccn2c1=O", "Potency": "inactive"}
{"smiles": "CCN(CC(=O)NCc1ccc(Cl)cc1)C(=O)c1ccc(C#N)cc1", "activity change, negative = growth inhibition": "inconclusive: -31.2% [inhibitor]"}
{"smiles": "OC1CCN(c2c3c(nc4cc(-c5ccc(Cl)cc5)nn24)CCC3)CC1", "Potency": "active: 20.6 µM"}
{"smiles": "CCOC(=O)[C@]12CCCC=C1N(Cc1ccccc1)C(=O)[C@H](CC(=O)NCc1cccs1)C2", "Potency": "inactive"}
{"smiles": "Cc1cccc2cc(CN(Cc3nnnn3C3CCCC3)C3CCCCC3)c(=O)[nH]c12", "Potency": "inconclusive [inhibitor, single point]"}
{"smiles": "N#CCCn1c(SCC(=O)c2c[nH]c3ccccc23)nc2ccccc21", "Potency": "active: 18.4 µM"}
{"smiles": "COc1ccc(-c2nc3c(c(=O)c4ccccc4n3C)c(=O)n2Cc2ccccc2)cc1", "Potency": "inactive"}
{"smiles": "C/C(CC(C)C)=N\\Nc1ccc(S(N)(=O)=O)cc1[N+](=O)[O-]", "Potency": "inconclusive [inhibitor, single point]"}
{"smiles": "O=C(Nc1ccc2snnc2c1)N1CCCCC1", "Potency": "inactive"}
{"smiles": "OC[C@@H]1CN(CCNc2ccccc2)C[C@H](n2cnc3c(NCc4ccncc4)ncnc32)O1", "Potency": "inactive"}
{"smiles": "O=C(Nc1ccc(N2CCN(C(=O)c3ccc(Cl)cc3)CC2)cc1)c1cccnc1", "Potency": "inconclusive [inhibitor, single point]"}
{"smiles": "CCc1ccc(NC(=O)CC2C(=O)N(c3ccc(Cl)cc3)C(=O)N2C2CCCC2)cc1", "note": "(stereo unspecified)", "Potency": "active: 18.4 µM"}
{"smiles": "CCOc1ccccc1CN1CCN(CCCc2ccccc2)CC1CCO", "note": "(stereo unspecified)", "Potency": "inconclusive [inhibitor, partial curve]"}
{"smiles": "COc1ccc(C(=O)COC(=O)C(CCSC)NC(=O)COc2ccccc2)c(OC)c1", "note": "(stereo unspecified)", "Potency": "inactive"}
{"smiles": "COc1cc(OC)c(NC(=O)CSc2cc(=O)n(C)c3ccc(Cl)cc23)cc1Cl", "Potency": "inconclusive [inhibitor, partial curve]"}
{"smiles": "Cc1ccc2cc(C#N)c(N3CCCN(C(=O)c4cnccn4)CC3)nc2c1", "Potency": "inconclusive [inhibitor, single point]"}
{"smiles": "O=C(NC(=S)Nc1ccccc1N1CCCCC1)c1ccc(-c2cccc([N+](=O)[O-])c2)o1", "Potency": "active: 23.1 µM"}
{"smiles": "CNC(=S)N(CCc1c(C)[nH]c2ccc(OC)cc12)Cc1ccco1", "Potency": "inconclusive [inhibitor, single point]"}
{"smiles": "O=c1c2cc(Cl)ccc2[nH]c(=S)n1Cc1ccccn1", "Potency": "inconclusive [inhibitor, single point]"}
{"smiles": "COc1ccccc1N1CCN(C(=O)C(Sc2ccccc2)c2ccccc2)CC1", "note": "(stereo unspecified)", "Potency": "inconclusive [inhibitor, single point]"}
{"smiles": "O=C(/C=C/c1cc([N+](=O)[O-])ccc1OC(F)F)NCc1ccc(Cl)cc1", "Potency": "inconclusive [inhibitor, single point]"}
{"smiles": "COc1cc(-c2nnc(COc3ccc4ccccc4c3)o2)cc(OC)c1OC", "Potency": "active: 25.9 µM"}
{"smiles": "O=C(OCc1ccccc1)C1=[N+]([O-])OC(C(=O)OCc2ccccc2)C1c1c[nH]c2ccccc12", "note": "(stereo unspecified)", "Potency": "inconclusive [inhibitor, partial curve]"}
{"smiles": "O=C(Nc1ccn(Cc2ccccc2F)n1)c1ccc(COc2cccc(Br)c2)cc1", "Potency": "inconclusive [inhibitor, single point]"}
{"smiles": "CC1(C)N=C(N)N=C(N)N1c1ccc(CCCCc2ccccc2)cc1", "Potency": "active: 0.366 µM"}
{"smiles": "C=CCOC(=O)C1=C(C)N=C2SCCC(=O)N2C1/C=C/c1ccccc1OC", "note": "(stereo unspecified)", "Potency": "inactive"}
{"smiles": "COC(=O)Cc1[nH]nc2c1C(c1ccc(O)c(OC)c1)C(C#N)=C(N)O2", "note": "(stereo unspecified)", "Potency": "inactive"}
{"smiles": "Nc1ncc(S(=O)(=O)NCc2ccc(F)cc2)cn1", "Potency": "inactive"}
{"smiles": "O=C(NC1CC(=O)N(c2ccccc2)C1)c1ccc(S(=O)(=O)N2CCCC2)cc1", "note": "(stereo unspecified)", "Potency": "inconclusive [inhibitor, full curve]"}
{"smiles": "CC(C)(c1ccccc1)c1ccc(OCCN2CCOCC2)cc1", "Potency": "active: 16.4 µM"}
{"smiles": "O=C(COc1cc(F)ccc1[N+](=O)[O-])NCCCc1ccccc1", "Potency": "inactive"}
{"smiles": "CCN(CC)c1ccc(/C=N/NC(=O)CNC(=O)c2cccnc2)cc1", "Potency": "inactive"}
{"smiles": "CC(C)c1cccc(C(C)C)c1NS(=O)(=O)c1cccs1", "Potency": "inconclusive [inhibitor, single point]"}
{"smiles": "CC(CCCc1ccccc1)NC(=O)c1nn(-c2ccc(Cl)cc2)nc1CO", "note": "(stereo unspecified)", "Potency": "active: 20.6 µM"}
{"smiles": "CCOc1ccc(NC(=O)c2cc(S(=O)(=O)N3CCOCC3)cs2)cc1", "Potency": "inactive"}
{"smiles": "O=C(c1ccncc1)N1CCC2(CC1)CN(c1ccccn1)C2", "Potency": "inconclusive [inhibitor, partial curve, poor fit]"}
{"smiles": "CCC(=O)N(Cc1ccco1)c1nc(C(=O)Nc2ccc(Cl)cc2)c(C)s1", "Potency": "inconclusive [inhibitor, single point]"}
{"smiles": "CCCCNc1nc2ccccc2n1CC(=O)N1CCc2ccccc2C1", "Potency": "inconclusive [inhibitor, partial curve]"}
{"smiles": "Fc1ccc(-c2csc(NC(=S)Nc3ccccc3)n2)cc1", "Potency": "inconclusive [inhibitor, partial curve, poor fit]"}
{"smiles": "CCCOc1ccc(N2C(=O)CC(SC(=NCC)NCC)C2=O)cc1", "note": "(stereo unspecified)", "Potency": "inconclusive [inhibitor, single point]"}
{"smiles": "CC(C)C(=O)C1=Cc2cc([N+](=O)[O-])ccc2OC1N1CCOCC1", "note": "(stereo unspecified)", "Potency": "active: 25.9 µM"}
{"smiles": "CC1(C)N=C(c2ccccc2)C(c2ccccc2)=N1", "Potency": "inconclusive [inhibitor, partial curve]"}
{"smiles": "COc1ccc(/C=N/OC(=O)Nc2ccccc2)cc1[N+](=O)[O-]", "Potency": "inactive"}
{"smiles": "Cn1ncc(C#N)c1/N=C/N(Cc1ccccc1)Cc1ccccc1", "Potency": "inconclusive [inhibitor, single point]"}
{"smiles": "Cc1nn2cnnc2c(C)c1Cc1c(F)cccc1Cl", "activity change, negative = growth inhibition": "inconclusive: -32.2% [inhibitor]"}
{"smiles": "O=c1[nH]n(CCO)c(=O)c2cccnc12", "Potency": "inactive"}
{"smiles": "Cc1nn(Cc2ccc(F)cc2)c2sc(C(=O)Nc3ccccc3N3CCOCC3)cc12", "Potency": "inconclusive [inhibitor, single point]"}
{"smiles": "COc1ccc(CNC(=O)C2CCN(S(=O)(=O)c3ccc4c(ccn4C)c3)CC2)cc1", "Potency": "inconclusive [inhibitor, single point]"}
{"smiles": "CCOc1ccccc1NC(=O)c1cc2c(=O)[nH]c3ccccc3c2s1", "Potency": "inactive"}
{"smiles": "COc1cccc(-c2ccc(C#N)c(OC(=O)c3c(Cl)cccc3Cl)n2)c1", "Potency": "inactive"}
{"smiles": "Cn1nc(-c2ccccc2)cc1NC(=O)C1CCCCC1", "Potency": "inconclusive [inhibitor, partial curve]"}
{"smiles": "O=C(NCCCl)C1Cc2c(ccc3ccccc23)O1", "note": "(stereo unspecified)", "Potency": "inactive"}
{"smiles": "CC(=O)Nc1sc2c(c1C(N)=O)CCN(Cc1ccccc1)C2", "Potency": "inactive"}
{"smiles": "Cc1ccc(C)c(N2CCN(C(=O)c3ccccc3Br)CC2)c1", "Potency": "active: 16.4 µM"}
{"smiles": "Nc1cc(=O)[nH]c(SCC(=O)Nc2ccc(Oc3ccccc3)cc2)n1", "activity change, negative = growth inhibition": "inconclusive: -42.2% [inhibitor]"}
{"smiles": "Cc1ccccc1OCc1csc(N)n1", "Potency": "inactive"}
{"smiles": "CNc1ccc(-c2cccc(C(C)=O)c2)cn1", "Potency": "inactive"}
{"smiles": "COc1ccc(OCCNC(=O)C2(C)CCN2Cc2ccc3ccccc3c2)cc1", "note": "(stereo unspecified)", "Potency": "active: 16.4 µM"}
{"smiles": "N#Cc1cnc(NOCc2ccc(Cl)cc2)nc1", "Potency": "inactive"}
{"smiles": "COc1ccc(/C=C/C(=O)OCC(=O)Nc2ccc(Cl)c(S(=O)(=O)N(C)C)c2)cc1OC", "Potency": "inconclusive [inhibitor, single point]"}
{"smiles": "COc1ccc(OC)c(NC(=O)c2cnn(-c3ccccc3Cl)c2NC(=O)c2ccco2)c1", "Potency": "inactive"}
{"smiles": "Cc1ncc2c(c1CNC(=O)c1cncs1)CCN(C(=O)c1csc(-c3cccs3)n1)C2", "Potency": "inactive"}
{"smiles": "N#CC(CCc1ccccc1[N+](=O)[O-])(CCc1ccccc1[N+](=O)[O-])C(N)=O", "Potency": "inconclusive [inhibitor, single point]"}
{"smiles": "CC(=O)N1CCN(Cc2cc(=O)oc3cc(C)ccc23)CC1", "Potency": "inactive"}
